From PubChem BioAssay AID1347430 (National Center for Advancing Translational Sciences (NCATS), 2020)
The campaign covered roughly 91,000 compounds. About 130 (0.14%) were called active. The shares of active, inactive and inconclusive entries below differ from those in the screen. Calls follow the shape of the dose curve; as a rule, active = well fitted inhibition curve with a large enough effect; inconclusive = small, poorly fitted or top-dose-only effect; inactive = flat fitted curve, though single readings scatter. Potencies beside an inconclusive call are fits to weak or partial responses and may not hold up.
Also: nearly all actives have a fitted effect of over 65% in size.
Potency is read from the fitted curve at half-maximal effect; tags tell the direction and shape of the fitted curve.

Each compound was assayed on Uracil-DNA glycosylase (assay: Primary qHTS assay for inhibitors of Activation Induced Cytidine Deaminase (AID): UDG Counterscreen signal). Settings: FRET deamination/UDG coupled assay, UDG read, 4 h; series mostly up to 115 µM.
With `CCCC12CN3CC(CCC)(CN(C1)C3c1c(C)[nH]c(=O)[nH]c1=O)C2=O` (stereo not drawn) the Potency was inconclusive: 44.7 µM [inhibitor, partial curve, poor fit]. In the case of `Cn1nc(-c2ccc(N3CCCCC3)c(NC(=O)c3ccc(Cl)cc3)c2)c2ccccc2c1=O`, the Potency is reported as “inactive”. With `CCCc1cc(=O)oc2cc(OS(=O)(=O)c3ccc(F)cc3Cl)ccc12` the Potency was “inactive”. With `COc1ccc(C(=O)Nc2ccc3oc(-c4ccncc4)nc3c2)cc1` the Potency was inconclusive: 79.4 µM [inhibitor, single point]. With `CC(C)CCNc1nc(-c2ccc(O)c(C(N)=O)c2)cs1` the Potency was “inactive”. With `CCCN(CC)c1ccc(/C=N/NC(=S)Nc2ccc(C)cc2)cc1` the Potency was “inactive”. In the case of `CCN1CCC(N(Cc2ccc(F)cc2)C(=O)Nc2ccc(C)c(F)c2)CC1`, the Potency is reported as inconclusive: 79.4 µM [inhibitor, single point]. `Cc1ccc(OCC(=O)OCc2cc(=O)n3ccsc3n2)cc1C` was tested, and the Potency was inconclusive: 70.8 µM [inhibitor, single point]. With `CCOc1ccc(-c2cc3nc(C4CCN(C(=O)OC(C)(C)C)CC4)c(C(=O)Nc4cccc(Cl)c4C)cn3n2)cc1` the Potency was inconclusive: 79.4 µM [inhibitor, partial curve, poor fit]. With `CC(=O)Nc1ccc(S(=O)(=O)Nc2nc3ccccc3nc2Nc2ccc3ccccc3c2)cc1` the Potency was inconclusive: 89.1 µM [inhibitor, single point]. For `O=C(CCCCCCCC(=O)NNC(=O)c1ccc(Cl)cc1)NNC(=O)c1ccc(Cl)cc1`, the Potency was “inactive”. With `COc1ccc(NC(=O)N2CCN(S(=O)(=O)c3ccc4c(ccn4C)c3)CC2)c(OC)c1` the Potency was inconclusive: 2.82 µM [inhibitor, full curve, poor fit]. For `CCc1ccc(NC(=O)C(CC)n2c(=O)c(-c3ccccc3NC(C)=O)nc3ccccc32)cc1` (stereo not drawn), the Potency was inconclusive: 79.4 µM [inhibitor, partial curve]. For `CCN(CC)c1ccc(NC(=O)C2CCN(S(=O)(=O)c3cnc[nH]3)CC2)c(C)c1`, the Potency was inconclusive: 100 µM [inhibitor, single point]. `CCc1nnc(NC(=O)c2nc(SCc3ccccc3F)ncc2Cl)s1` was tested, and the Potency was inconclusive: 100 µM [inhibitor, single point]. For `O=S1(=O)c2ccccc2N(Cc2ccc(Cl)cc2)c2ccccc21`, the Potency was “inactive”. With `Cc1ccc(S(=O)(=O)N(CC(=O)NCCSc2ccc(Cl)cc2)c2ccccc2C)cc1` the Potency was inconclusive: 79.4 µM [inhibitor, single point]. In the case of `O=C(C1CC1)N(Cc1ccc2c(c1)CN(S(=O)(=O)c1ccc(F)c(F)c1)CCO2)c1ccccc1`, the Potency is reported as active: 89.1 µM.
